Among all 45,000 compounds or so, about 200 (0.44%) were called active. Not shown: some 7% with an inconclusive outcome. The call rests on the fitted dose curve; in most records, active means well fitted activation curve with a large enough effect; inconclusive means small, poorly fitted or top-dose-only effect; inactive means no such curve, though single readings can be large or run the other way. The list shows a part of the results.
Assay: qHTS of TDP-43 Inhibitors: NCGC Sytravon Library Screen; further: 0% is about no effect; nearly all actives have a fitted effect of over 55% in size
Conditions: yeast TDP-43 toxicity rescue, BacTiter-Glo growth, 24 h; series mostly up to 46.1 µM; growth rescue (activation): at the top concentration
In short: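 TDP-43-expressing yeast, pregrown in raffinose, seeded at OD600 0.02 in galactose medium with compound for 24 hr at 30 deg C. Growth read by BacTiter-Glo luminescence, so rescue of toxicity appears as activation.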

Question: With `Cc1ccc(NC(=O)Cc2ccsc2)cc1S(=O)(=O)N1CCOCC1` as the compound, how does the “growth rescue (activation)” value read?
Answer: The value was inactive: 1.5%.

Question: For `CC1CC(=O)N(c2ccc(NCc3ccccc3Cl)c([N+](=O)[O-])c2)C1=O` (centres undefined), which “growth rescue (activation)” value is on record?
Answer: The value was inactive: 20.2%.

Question: With `CCCC(=O)Nc1ccc(Nc2ccccc2)cc1` as the compound, how does the “growth rescue (activation)” value read?
Answer: The value was inactive: 6.76%.

Question: For `O=C(CSc1nnc2ncccn12)Nc1cccc2ccccc12`, which “growth rescue (activation)” value is on record?
Answer: Its value is inactive: -9.11%.

Question: Which “growth rescue (activation)” value does the source give for `COCCNC(=O)CN(C(=O)Cn1nnc2ccccc21)c1cc(C)cc(C)c1` here?
Answer: The value was inactive: -1.27%.

Question: For `Cc1ccc(C(=O)N/C(=C/c2ccc(Cl)cc2)C(=O)N2CCOCC2)cc1`, which “growth rescue (activation)” value is on record?
Answer: The value was inactive: 12.5%.

Question: For `O=C(O)CCn1c(=O)n(CCC(=O)O)c(=O)n(CCC(=O)O)c1=O`, which “growth rescue (activation)” value is on record?
Answer: The value was inactive: -10.1%.

Question: Which “growth rescue (activation)” value does the source give for `COc1ccccc1OCC(=O)Nc1ccc2c(c1)OCCO2` here?
Answer: Its value is inactive: 29.8%.

Question: With `CC1CC2=C(NC(=S)NC2c2ccccc2F)/C(=C/c2ccccc2F)C1` (centres undefined) as the compound, how does the “growth rescue (activation)” value read?
Answer: Its value is inactive: 16%.

Question: For `CCOc1cc(/C=N/n2c(C)nc3sc(C)c(C)c3c2=O)ccc1O`, which “growth rescue (activation)” value is on record?
Answer: Its value is inactive: -1.65%.

Question: For `COc1ccc2oc(N)c(C=O)c(=O)c2c1`, which “growth rescue (activation)” value is on record?
Answer: The value was inactive: -20.7%.

Question: For `O=C(CSc1ccc(F)cc1)Nc1cccc(S(=O)(=O)N2CCOCC2)c1`, which “growth rescue (activation)” value is on record?
Answer: The value was inactive: -0.66%.

Question: Which “growth rescue (activation)” value does the source give for `O=C(NCCOc1ccc(F)cc1)C1CCN(S(=O)(=O)c2ccccc2)CC1` here?
Answer: Its value is inactive: 10.1%.

Question: For `CCN(CC)S(=O)(=O)c1ccc(N2CCOCC2)c(NC(=O)CC23CC4CC(CC(Br)(C4)C2)C3)c1`, which “growth rescue (activation)” value is on record?
Answer: Its value is inactive: 21.7%.

Question: For `CCC(=O)Nc1nonc1-c1nc2ccccc2n1CC(C)C`, which “growth rescue (activation)” value is on record?
Answer: Its value is inactive: 20.9%.

Question: For `COC(=O)c1ccc(NC(=S)Nc2ccc(O)cc2)cc1`, which “growth rescue (activation)” value is on record?
Answer: Its value is inactive: 7.15%.

Question: Which “growth rescue (activation)” value does the source give for `O=C(CNCc1ccc(Cl)cc1)Nc1ccc(C(=O)N2CCCCC2)cc1` here?
Answer: Its value is inactive: -4.07%.

Question: With `Cc1[nH]n(-c2ccccc2)c(=O)c1N=Nc1cccc([N+](=O)[O-])c1` as the compound, how does the “growth rescue (activation)” value read?
Answer: The value was inactive: -5.92%.

Question: With `COC(=O)c1ccc(Cn2cc(C(F)(F)F)cc([N+](=O)[O-])c2=O)cc1` as the compound, how does the “growth rescue (activation)” value read?
Answer: Its value is inactive: 14.3%.

Question: With `CCCCC(C(=O)NC1CCCC1)N(Cc1ccccc1)C(=O)c1snc(C(N)=O)c1N` (centres undefined) as the compound, how does the “growth rescue (activation)” value read?
Answer: Its value is inactive: -5.24%.

Question: Which “growth rescue (activation)” value does the source give for `Cc1ccccc1OCC(=O)NCCCNC(=O)c1cccnc1` here?
Answer: The value was inactive: 7.86%.

Question: For `COC(=O)COc1ccc(-c2ccccc2)cc1C=O`, which “growth rescue (activation)” value is on record?
Answer: The value was inactive: -55.5%.

Question: For `Cc1ccc(SCC(=O)Nc2ccc(S(=O)(=O)Nc3ncccn3)cc2)cc1`, which “growth rescue (activation)” value is on record?
Answer: The value was inactive: -2.95%.

Question: Which “growth rescue (activation)” value does the source give for `Cc1cc(C(=O)Nc2nnc(C(F)(F)F)s2)cs1` here?
Answer: The value was inactive: 5.1%.

Question: With `C=CCn1c(=O)c2ccccc2n2c(SCC(=O)N(C)C)nnc12` as the compound, how does the “growth rescue (activation)” value read?
Answer: The value was inactive: -3.29%.

Question: For `Cc1ccc(S(=O)(=O)N2CCOCC2)cc1C(=O)N1CCCC1`, which “growth rescue (activation)” value is on record?
Answer: Its value is inactive: -23.7%.

Question: For `O=C(NCc1ccco1)/C(=C\c1cccs1)NC(=O)c1ccco1`, which “growth rescue (activation)” value is on record?
Answer: The value was inactive: -4.69%.

Question: For `CCOC(=O)CC1C(=O)NCCN1S(=O)(=O)c1ccccc1` (centres undefined), which “growth rescue (activation)” value is on record?
Answer: Its value is inactive: -4.01%.

Question: For `CN(C)CCOC(=O)NC12CC3CC(CC(C3)C1)C2`, which “growth rescue (activation)” value is on record?
Answer: The value was inactive: 1.91%.

Question: For `COC(=O)c1cc(NC(=O)COC(=O)CN2C(=O)C3CC=CCC3C2=O)cc(C(=O)OC)c1` (centres undefined), which “growth rescue (activation)” value is on record?
Answer: The value was inactive: 6.04%.

Question: For `O=C(O)c1ccccc1OC(C(=O)Nc1cc(Cl)cc(Cl)c1)c1ccccc1` (centres undefined), which “growth rescue (activation)” value is on record?
Answer: The value was inactive: -3.72%.

Question: For `O=C(O)CCCNc1n[nH]c(=O)[nH]c1=O`, which “growth rescue (activation)” value is on record?
Answer: The value was inactive: -1.09%.

Question: With `CSc1ccccc1NC(=O)Cn1ccsc1=N` as the compound, how does the “growth rescue (activation)” value read?
Answer: Its value is inactive: 8.56%.

Question: With `Cc1cccc(/C=N/n2c(-c3ccccc3)n[nH]c2=S)c1O` as the compound, how does the “growth rescue (activation)” value read?
Answer: The value was inactive: 7.03%.

Question: For `CSC1=C(C#N)C(c2sccc2C)CC(=O)N1` (centres undefined), which “growth rescue (activation)” value is on record?
Answer: Its value is inactive: 1.78%.

Question: With `Cc1cccc(N(C(=O)c2snc(C(N)=O)c2N)C(C(=O)NCc2ccccc2)c2ccncc2)c1` (centres undefined) as the compound, how does the “growth rescue (activation)” value read?
Answer: The value was inactive: 15.6%.

Question: Which “growth rescue (activation)” value does the source give for `COc1ccccc1C1C(C(N)=O)=C(C)Nc2nc(CCCO)nn21` (centres undefined) here?
Answer: Its value is inactive: -7.28%.

Question: Which “growth rescue (activation)” value does the source give for `CCOC(=O)C(Cc1ccc(NC(=O)/C(=C\c2ccccc2)NC(=O)c2ccccc2)cc1)N1C(=O)c2ccccc2C1=O` (centres undefined) here?
Answer: Its value is inactive: 12.7%.

Question: For `CNc1c(NS(=O)(=O)c2ccc(CC(C)C)cc2)c(=O)oc2ccccc12`, which “growth rescue (activation)” value is on record?
Answer: The value was inactive: 10.5%.

Question: With `CC1CCC(NC(=O)CSc2nncn2C)CC1` (centres undefined) as the compound, how does the “growth rescue (activation)” value read?
Answer: Its value is inactive: 2.42%.

Question: With `COc1cccc(N(CC(=O)NCC2CCCO2)C(=O)CNS(=O)(=O)c2ccccc2)c1` (centres undefined) as the compound, how does the “growth rescue (activation)” value read?
Answer: The value was inactive: -19.3%.

Question: For `Nc1nnc(SCC(=O)Nc2cccc(S(N)(=O)=O)c2)s1`, which “growth rescue (activation)” value is on record?
Answer: Its value is inactive: 1.51%.

Question: With `Cc1ccc2c(C)c(C(=O)N(C)CCC3CCCCO3)oc2c1C` (centres undefined) as the compound, how does the “growth rescue (activation)” value read?
Answer: The value was inactive: 4.76%.

Question: Which “growth rescue (activation)” value does the source give for `CC(NC(=O)c1ccc(NS(C)(=O)=O)cc1)c1ccccc1` (centres undefined) here?
Answer: The value was inactive: -18.9%.

Question: With `CCn1ccc(C(=O)Nc2cccc(Cl)c2)n1` as the compound, how does the “growth rescue (activation)” value read?
Answer: The value was inactive: 20.1%.

Question: With `Cc1ccc(S(=O)(=O)NN2C(=O)/C(=C\c3ccc(Cl)cc3)SC2=S)cc1` as the compound, how does the “growth rescue (activation)” value read?
Answer: The value was inactive: -14.7%.

Question: For `O=C(NC1CCN(C(=O)NCc2ccccc2)CC1)c1ccccc1`, which “growth rescue (activation)” value is on record?
Answer: Its value is inactive: 3.82%.

Question: Which “growth rescue (activation)” value does the source give for `Cc1cc(C)cc(-n2cc(C(=O)O)c(=O)cc2C)c1` here?
Answer: Its value is inactive: 2.8%.

Question: For `Cc1cc(S(=O)(=O)N2CCOCC2)ccc1OCC(=O)N1CCC(C(N)=O)CC1`, which “growth rescue (activation)” value is on record?
Answer: Its value is inactive: 8.24%.

Question: For `Cc1ccc(C)c(C(O)c2ncc(-c3ccccc3F)[nH]2)c1` (centres undefined), which “growth rescue (activation)” value is on record?
Answer: The value was inactive: 0.347%.

Question: For `COc1ccc(CN(C)Cc2nc3scc(-c4ccccc4)c3c(=O)[nH]2)cc1OC`, which “growth rescue (activation)” value is on record?
Answer: Its value is inactive: 13.4%.

Question: For `O=c1c2cn(Cc3ccc(F)cc3)c3ccccc3c-2nn1Cc1ccc(F)cc1`, which “growth rescue (activation)” value is on record?
Answer: Its value is inactive: -8.17%.

Question: Which “growth rescue (activation)” value does the source give for `Cc1nc(C)n(CC(C)C(=O)N2CCN(S(=O)(=O)c3ccccc3)CC2)n1` (centres undefined) here?
Answer: Its value is inactive: -0.316%.

Question: Which “growth rescue (activation)” value does the source give for `CN(CC(=O)Nc1ccc(S(N)(=O)=O)cc1)C1CCCCC1` here?
Answer: Its value is inactive: -16.2%.

From PubChem BioAssay AID1347073 (National Center for Advancing Translational Sciences (NCATS), 2019)
